± gives the standard deviation of the averaged measurements. Over roughly 33,000 sequences, “E-score (dimensionless, -0.5 to 0.5)” has its median near -0.049; the highest 2% begin near 0.37. This is one part of the list.
Each sequence was assayed on T1, PmTbr T-box DNA-binding domain (GST fusion) (assay: PBM E-score of 8-mer (E-score (dimensionless, -0.5 to 0.5)); Tbr is Tbrain of the sea star Patiria miniata (Pm) or the sea urchin Strongylocentrotus purpuratus (Sp); higher = stronger binding preference; most listed sequences are background and not binding sites). Details: the construct has about 5 more residues each side.
T1 sequence: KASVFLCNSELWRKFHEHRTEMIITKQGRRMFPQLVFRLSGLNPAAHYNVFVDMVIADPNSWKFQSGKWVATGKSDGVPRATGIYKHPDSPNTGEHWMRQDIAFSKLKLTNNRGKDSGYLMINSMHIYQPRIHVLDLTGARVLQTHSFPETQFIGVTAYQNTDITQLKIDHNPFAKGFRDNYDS
Procedure, shortened: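 Each ungapped 8-mer received an enrichment E-score from the Universal PBM Analysis Suite, averaged over duplicate arrays. The proteins were Tbr T-box DNA-binding domains, covering the whole T-box plus about five flanking residues, fused to GST and expressed in BL21 E. coli at 20 °C before glutathione affinity purification. Universal Agilent oligonucleotide arrays were made double-stranded by primer extension and incubated with 200 nM protein in PBS (pH 7.5). The arrays were then scanned and quantified, and every 8-mer was scored from probe intensities.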

Sequence | PBM E-score of 8-mer
AGGTCTGC | -0.287 ± 0.043
GTAACGGA | -0.104 ± 0.099
AAGAGCTT | -0.317 ± 0.067
GTAAGGAC | -0.177 ± 0.096
ACAGGACG | 0.0722 ± 0.034
GTTTAAAC | -0.152 ± 0.0054
AATACTAC | -0.191 ± 0.04
ACGCTATC | 0.139 ± 0.017
AGTAGACG | 0.0448 ± 0.06
GAAGTGTA | 0.293 ± 0.028
CCTCCGTC | -0.0799 ± 0.048
GCGTGCCA | 0.163 ± 0.015
ATACTATC | -0.157 ± 0.018
GATTCCAA | 0.0116 ± 0.028
CCCAGGAC | -0.0782 ± 0.0074
CGTGTAAG | 0.0567 ± 0.055
TATGACCA | -0.0597 ± 0.049
GCTCGTCA | 0.00998 ± 0.053
GGCTAACC | -0.0286 ± 0.053
CTAATGTA | -0.242 ± 0.039
GAAGAAAC | -0.177 ± 0.024
AAACTAAA | -0.174 ± 0.086
ACAGCTAC | 0.115 ± 0.032
GTAGGTAA | -0.141 ± 0.024

Sequence | PBM E-score of 8-mer
TAACCACA | 0.105 ± 0.028
ATAACGCA | 0.0162 ± 0.034
CCGGAAAG | -0.184 ± 0.016
TGTAAACA | 0.15 ± 0.029
CATCGCTA | 0.157 ± 0.0021
CGGGAAAG | -0.0396 ± 0.06
ACGGTCAT | 0.00306 ± 0.057
CTCTGACC | -0.243 ± 0.018
CTTCTGTC | -0.0727 ± 0.057
CGCATTTC | -0.103 ± 0.14
ACATGTAC | -0.0175 ± 0.042
ACCCATGA | -0.0699 ± 0.0078
ACCCCCGA | -0.0696 ± 0.058
GCATACCA | -0.0714 ± 0.0053
TGGATCAA | -0.0192 ± 0.0014
ACGGATGC | -0.133 ± 0.037
CCAAATCA | 0.153 ± 0.063
CACGGAGC | -0.0154 ± 0.019
GGACGTAA | -0.214 ± 0.024
GGGAACTA | -0.076 ± 0.067
GATGAAGA | -0.134 ± 0.051
GGCTCCAA | -0.1339 ± 0.00023
AGAGTGGC | 0.0876 ± 0.017
GAGCCCGC | 0.051 ± 0.0011

Sequence | PBM E-score of 8-mer
ATCGCATC | 0.0618 ± 0.032
AGTCTGTA | -0.0833 ± 0.076
ATAGACCC | -0.272 ± 0.003
CAGTCGAC | 0.0406 ± 0.057
ACAACTAC | 0.08361 ± 0.0003
GTAGTAAA | -0.137 ± 0.0077
GGGGCCTA | -0.0886 ± 0.09
CTATCAAG | -0.14 ± 0.049
GTCTTCAC | 0.234 ± 0.013
GTCTTCCA | -0.193 ± 0.014
ACATAATG | 0.0544 ± 0.014
ATAATTAC | -0.0232 ± 0.018
ACGATAAT | -0.139 ± 0.11
GCACGTAA | -0.0394 ± 0.038
ATCCGCAG | -0.171 ± 0.0028
CGCTATAG | -0.0732 ± 0.033
AAGGACAG | -0.208 ± 0.028
GTTAGGTA | -0.00675 ± 0.069
ATATCGTA | -0.136 ± 0.063
CTGCGAAC | 0.324 ± 0.013
AGATATAC | -0.123 ± 0.01
AATGGAGG | 0.0939 ± 0.018
ATAGAGCC | -0.165 ± 0.019
ACAGGAGG | -0.123 ± 0.023

Sequence | PBM E-score of 8-mer
GCGACGGA | 0.0845 ± 0.023
GGCAGGTA | -0.0237 ± 0.036
CCAAGGTA | -0.0802 ± 0.049
AAAGACTC | -0.156 ± 0.018
ATATTAGA | -0.129 ± 0.079
GTGTTAAA | 0.429 ± 0.021
CCATGCCG | 0.0918 ± 0.063
AAAGGAGA | 0.0694 ± 0.069
ACCGGCTA | -0.11 ± 0.063
GCTTGACC | -0.317 ± 0.045
GGAAGCGA | -0.0878 ± 0.0094
AAGGATAA | -0.0508 ± 0.026
AGAAACGC | 0.0541 ± 0.04
ATGTCCGG | -0.174 ± 0.071
CGTCGTCA | 0.232 ± 0.012
TCGAACCA | -0.0751 ± 0.11
GCTCGTAC | -0.138 ± 0.023
GGCGGTTA | -0.254 ± 0.084
ACCGATTC | -0.224 ± 0.066
GCAAGAGA | -0.124 ± 0.037
AGTCAGGC | -0.332 ± 0.017
GAATCATC | -0.0201 ± 0.021

Reference: the supplement of paper PMC4166925
